Results taken from PubChem BioAssay AID360 (National Center for Advancing Translational Sciences (NCATS), 2006).
Out of some 48,000 compounds screened, about 550 (1.1%) were called active. Inconclusive results (about 4%) are left out. No stated cut-off is given here; in the data, active means potency below about 15 µM; inconclusive means mostly about 16 µM to 33 µM; inactive means weaker than that. Some of the results follow.

Target: Lysosomal acid glucosylceramidase (Homo sapiens) (UniProt P04062)
Chain of UniProt P04062 (P04062 whole entry, looked up): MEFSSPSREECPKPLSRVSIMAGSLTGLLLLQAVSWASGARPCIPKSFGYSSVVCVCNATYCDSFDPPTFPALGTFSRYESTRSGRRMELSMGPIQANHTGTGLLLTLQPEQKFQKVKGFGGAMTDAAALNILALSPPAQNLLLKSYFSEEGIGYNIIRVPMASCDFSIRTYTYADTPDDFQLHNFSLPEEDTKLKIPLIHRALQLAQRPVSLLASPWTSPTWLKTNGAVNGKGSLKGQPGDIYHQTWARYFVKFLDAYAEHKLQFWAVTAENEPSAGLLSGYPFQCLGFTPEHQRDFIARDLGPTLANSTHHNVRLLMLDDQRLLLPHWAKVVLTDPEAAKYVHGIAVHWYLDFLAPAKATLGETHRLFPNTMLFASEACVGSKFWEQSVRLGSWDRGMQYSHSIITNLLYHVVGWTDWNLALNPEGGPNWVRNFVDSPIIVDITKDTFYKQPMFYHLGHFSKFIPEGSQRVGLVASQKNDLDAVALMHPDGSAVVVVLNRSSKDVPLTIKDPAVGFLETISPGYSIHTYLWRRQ
Experiment: Glucocerebrosidase;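 further: the screen sought inhibitors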
Conditions: purified enzyme, resorufin glucoside fluorescence (screen aimed at inhibitors), 20 min; series mostly up to 77 µM
In short: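 Normal human glucocerebrosidase (0.2 nM final) was assayed with resorufin β-D-glucopyranoside (30 uM final) in 50mM citric acid/KH2PO4, 10mM sodium taurocholate, 0.01% tween-20, pH 5.9. Compounds were titrated; fluorescence (Ex 548, Em 600) read after 20 min at RT.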
Potency means the concentration at half of the fitted maximal effect.

Potency, inactive:
CCN(CC)CCn1cnc2c([nH]c3cccc(OC)c32)c1=O > 76.9 µM
O=C(NC1CCCC1)c1ccc(COCC(F)(F)C(F)F)o1 > 76.9 µM
O=C(c1cccs1)N1CCN(C/C=C/c2ccccc2)CC1 > 76.9 µM
CCN(CC)CCCN1C(=O)C(=O)/C(=C(/O)c2cc(C)ccc2C)C1c1cccnc1 (stereo not drawn) > 76.9 µM
CSc1nnc(-c2cccs2)n1-c1ccccc1 > 76.9 µM
CCOc1ccc(C2=[N+]([O-])C(C)(C)N(O)C2(C)C)cc1 > 76.9 µM
COc1ccccc1C(=O)NCCc1nc2ccccc2[nH]1 > 76.9 µM
CC(C)C(NS(=O)(=O)c1ccc2c(c1)OCCO2)C(=O)NCCc1ccccn1 (stereo not drawn) > 76.9 µM
Cc1ccc(S(=O)(=O)Nc2nncs2)cc1 > 76.9 µM
Cc1ccc(-c2[nH]c(=O)n3ccncc23)s1 > 76.9 µM
COc1ccc(N2CCN(C(=O)Cn3nnc(-c4ccc(OC)c(OC)c4)n3)CC2)cc1 > 76.9 µM
O=C(c1ccccc1F)N(Cc1ccc(F)cc1)C1CCS(=O)(=O)C1 (stereo not drawn) > 76.9 µM
CC(C)(C)c1cc(C(=O)N2CCc3ccccc32)ccn1 > 76.9 µM
CCCCCCOC(=O)C(C#N)c1nc2ccccc2nc1N1CCCCC1 (stereo not drawn) > 76.9 µM
CCOC(=O)C1CCN(C(=O)CSC2=NCCS2)CC1 > 76.9 µM
CC(O)CNC(=O)C1CCN(Cc2ccc(OCc3ccccc3)cc2)CC1 (stereo not drawn) > 76.9 µM
Cc1cc(=O)oc2cc(OCC(=O)N3CCCc4ccccc43)ccc12 > 76.9 µM
O=C(CSc1ccc(Cl)cc1)c1ccco1 > 76.9 µM
COc1ccc(CCNC(=O)CN2CCC(C(N)=O)CC2)cc1 > 76.9 µM
COc1cc(S(=O)(=O)N2CCN=C2c2ccccc2)ccc1F > 76.9 µM
Cc1cc(C(=O)Nc2ccon2)cs1 > 76.9 µM
CC(C)OC(=O)CC(=O)CSc1nc2c(cc1C#N)CCCC2
CS(=O)(=O)N1CCCC(C(=O)NCCN2CCC(Cc3ccccc3)CC2)C1 (stereo not drawn) > 76.9 µM
Cn1c(NCc2ccco2)nc2c1c(=O)n(Cc1ccc(Br)cc1)c(=O)n2C > 76.9 µM
COc1ccccc1-c1nc(NC(C)=O)n[nH]1 > 76.9 µM
COc1cc(NC2c3ncccc3C(=O)N2Cc2ccco2)cc(OC)c1 (stereo not drawn) > 76.9 µM
COc1ccc(Cl)cc1N(CC(=O)Nc1ccccc1C(=O)NCc1ccco1)S(C)(=O)=O > 76.9 µM
CC1=CCC2C(=O)N(c3ccc4ccccc4n3)C(=O)C2C1 (stereo not drawn) > 76.9 µM
Nc1ccc(-n2nnnc2-c2ccco2)cc1 > 76.9 µM
CCOc1ccc(NC(=O)CC2CC(C)(C)OC2=O)cc1 (stereo not drawn) > 76.9 µM
O=C(c1cn(-c2ccccc2)nc1-c1ccncc1)N1CCCCC1 > 76.9 µM
Cn1c(SCC(=O)Nc2ccc3c(c2)oc2ccccc23)nnc1-c1ccccc1 > 76.9 µM
CCN1C(=O)CC(C(=O)Nc2ccc(F)cc2)SC1=Nc1ccc2c(c1)OCO2 (stereo not drawn)
Cc1ccc(-c2nnn(CC(=O)N(c3cccc(O)c3)C(C(=O)NC(C)(C)C)c3cccs3)n2)o1 (stereo not drawn) > 76.9 µM
CN(C)c1nc2n(c(=O)n1)CCO2 > 76.9 µM
CCN(CC)CCCNC(=O)C1c2ccccc2C(=O)N(C)C1c1ccc(OC)cc1 (stereo not drawn) > 76.9 µM
CCc1nc(SCC(=O)Nc2cc(C)on2)c2c(C)c(C)sc2n1 > 76.9 µM
CCOc1ccc2[nH]c(=O)c(CN(CCN3CCOCC3)Cc3nnnn3C(C)(C)CC)cc2c1 > 76.9 µM
CC(C)n1c(SCc2ccc(Cl)cc2)nc2c1c(=O)[nH]c(=O)n2C > 76.9 µM
NCCCCCc1nnc(SC/C=C/c2ccccc2)o1 > 76.9 µM
CCn1c(CSc2nnc(-c3ccc4c(c3)OCO4)o2)nc2cc(S(=O)(=O)N(C)C)ccc21 > 76.9 µM
CC1CCN(C(=O)CCNS(=O)(=O)c2ccccc2)CC1 > 76.9 µM
Cc1cc(C)n(-c2nc(SCC(=O)N3CCCC3)c3c4c(sc3n2)CCCC4)n1 > 76.9 µM
COC(=O)C1CCN(S(C)(=O)=O)CC1 > 76.9 µM
O=C(NCc1nc(-c2ccccc2)no1)c1cccs1 > 76.9 µM
Cc1cccc(OCC(=O)Nc2ccc(N3CCN(S(C)(=O)=O)CC3)cc2)c1C > 76.9 µM
CCOc1ccccc1C(=O)N1CCCCC1C (stereo not drawn) > 76.9 µM
O=S(=O)(Cc1ccccc1)N1CCC(c2nc(-c3cccs3)no2)CC1 > 76.9 µM
CC(CN1CCN(C)CC1)OC(=O)c1ccccc1Cl (stereo not drawn) > 76.9 µM
O=c1c(F)cn(C2CCCO2)c(=O)n1Cc1c(F)cccc1Cl (stereo not drawn) > 76.9 µM
O=S(=O)(c1cccc2c(S(=O)(=O)N3CCCC3)cccc12)N1CCCC1 > 76.9 µM
CCc1nc(SCC(=O)NCC2CCCO2)c2oc3ccccc3c2n1 (stereo not drawn) > 76.9 µM
O=C(c1cccnc1)N1CCC(c2nc3ccccc3[nH]2)CC1 > 76.9 µM
Cc1cccc(Cl)c1OCCCCn1ccnc1 > 76.9 µM
Nc1c(-c2ccc(Cl)cc2)nnn1-c1ccccc1 > 76.9 µM
CCN(CC)CCNC(=O)C1CCC(=O)N1CCc1ccccc1 (stereo not drawn) > 76.9 µM
Cc1ccc(C(=O)C2CCNCC2)cc1 > 76.9 µM
CCC(C)c1ccc(OCC(=O)O)cc1 (stereo not drawn) > 76.9 µM
O=C(NCCc1ccccc1)c1cc(-c2ccc3c(c2)OCO3)on1 > 76.9 µM
O=c1c2c(nc3c(-c4cccc5ccccc45)c[nH]n13)CCC2
O=C(Nc1ccccc1Cl)c1cc(S(=O)(=O)N2CCCC(C(=O)O)C2)ccc1F (stereo not drawn) > 76.9 µM
CCSCC1COC(c2cccn2Cc2ccc(C)cc2)=N1 (stereo not drawn) > 76.9 µM
C=CCn1c(SCC(=O)Nc2cc(C)ccc2OC)nnc1-c1ccco1 > 76.9 µM
Cn1nnc(NC(=O)c2ccco2)n1 > 76.9 µM
Cc1nnc(SCC(=O)N2CCCCC2)s1 > 76.9 µM
COc1cc2c(cc1NC(=O)CN1C(=O)NC3(CCc4ccccc43)C1=O)oc1ccccc12 (stereo not drawn) > 76.9 µM
N#CC1=C(N)OC2=C(CCC/C2=C/c2ccoc2)C1c1ccoc1 (stereo not drawn) > 76.9 µM
CCN(CC)c1ccc(CN(C(=O)c2cc(OC)c(OC)c(OC)c2)C2CCS(=O)(=O)C2)cc1 (stereo not drawn) > 76.9 µM
C=C(C)COc1ccc(-c2[nH]ncc2Oc2ccccc2OC)c(O)c1 > 76.9 µM
O=C(Nc1ccc(S(=O)(=O)NCCc2ccccc2)cc1)c1ccco1 > 76.9 µM
Cc1ccc(C(=O)CC2(O)C(=O)N(Cc3ccccc3Cl)c3ccccc32)o1 (stereo not drawn) > 76.9 µM
COc1ccc(CC(=O)N2CCN(C(=O)c3ccco3)CC2)cc1 > 76.9 µM
Cc1ccccc1CS(=O)(=O)CCC(=O)NCc1ccccn1 > 76.9 µM
CC1(C)CC(=O)C(C=NCc2ccc3c(c2)OCO3)=C(O)C1 > 76.9 µM
CCCC(=O)Nc1ccc2c(c1)nc1n2CCSC1 > 76.9 µM
CNC(=O)CN(C#N)c1nc(N(C)C)nc(N(C)C)n1 > 76.9 µM
COc1cccc(-c2nnc(N(C)C(=O)C3CCOC3)s2)c1 (stereo not drawn) > 76.9 µM
O=c1c2c(n3nnnc3n1-c1ccccc1)-c1ccccc1CC21CCCC1 > 15.4 µM
CC/C(=C\C(=O)c1cccnc1)Nc1ccc(C)c(C)c1 > 76.9 µM
CC(=O)Nc1cccc(NC(=O)C2CCCN2C(=O)Nc2ccc(C)cc2)c1 (stereo not drawn) > 76.9 µM
CC1Cc2nc(SCC(=O)NC3CCCCC3)n(C)c(=O)c2S1 (stereo not drawn) > 76.9 µM
COc1ccc(S(=O)(=O)Nc2c(C(=O)O)[nH]c3ccccc23)c(OC)c1 > 76.9 µM
O=C(Cc1cccs1)Nc1ccon1 > 76.9 µM
CCC(C)NC(=O)c1ccccc1NC(=O)C(C)N(c1ccccc1)S(C)(=O)=O (stereo not drawn) > 76.9 µM
CCCCN1C(=O)c2ccc(C(=O)Nc3cccnc3)cc2C1=O > 76.9 µM
Cn1c(SCc2cccnc2)nc2cccnc21 > 76.9 µM
Cc1cc(C)n2nc3nc(N4CCCCC4)nc(-c4ccco4)c3c2n1 > 76.9 µM
CC(C(=O)N=c1sc2ccccc2n1C)N1C(=O)C2CC=CCC2C1=O (stereo not drawn) > 76.9 µM
CCOC(=O)Cc1csc(NC(=O)CCS(=O)(=O)Cc2ccccc2)n1 > 76.9 µM
COc1ccc(N=C2SC(CC(=O)Nc3ccc(OC)cc3OC)C(=O)N2C)cc1 (stereo not drawn) > 76.9 µM
CCCCn1c(=O)c(-c2ccccc2)c(O)c2ccccc21 > 76.9 µM
FC(F)Sc1nnc(-c2cccs2)n1-c1ccccc1 > 76.9 µM
Cc1ccc2ncccc2c1NS(=O)(=O)c1ccccc1 > 76.9 µM
